Reference: publication PMC9911399, “Two distinct binding modes provide the RNA-binding protein RbFox with extraordinary sequence specificity”
Residue numbers refer to the chain shown, from its start. Some of the results follow.

T1: RBFOX1 RRM RbFoxmut (Fox-RRM*) (Homo sapiens, UniProt Q9NWB1 109-208, R118D;E147R;N151S;E152T)
T1 sequence: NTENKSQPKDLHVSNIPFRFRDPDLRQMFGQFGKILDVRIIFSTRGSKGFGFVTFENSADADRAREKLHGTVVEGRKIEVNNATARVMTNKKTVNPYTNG

B1: UACUAAU (DNA:RNA)
RNA: GGGAGACCGGAAUUCAGAUUGUCCUACUAAUUUAAAUCCCGUCGUAGCCACCA
DNA 1: CAATCTGAATTCCGGTCTCCC
DNA 2: TGGTGGCTACGACGGGATT
B2: CGCUUCU (DNA:RNA)
RNA: B1 RNA with U25C, A26G, A29U, A30C
DNA 1: CAATCTGAATTCCGGTCTCCC
DNA 2: TGGTGGCTACGACGGGATT
B3: UGACUGG (DNA:RNA)
RNA: B1 RNA with A26G, C27A, U28C, A29U, A30G, U31G
DNA 1: CAATCTGAATTCCGGTCTCCC
DNA 2: TGGTGGCTACGACGGGATT
B4: CACACUA (DNA:RNA)
RNA: B1 RNA with U25C, U28A, A29C, A30U, U31A
DNA 1: CAATCTGAATTCCGGTCTCCC
DNA 2: TGGTGGCTACGACGGGATT
B5: CACGGGA (DNA:RNA)
RNA: B1 RNA with U25C, U28G, A29G, A30G, U31A
DNA 1: CAATCTGAATTCCGGTCTCCC
DNA 2: TGGTGGCTACGACGGGATT
B6: GUAAUCA (DNA:RNA)
RNA: GGGAGACCGGAAUUCAGAUUGUCCGUAAUCAUUAAAUCCCGUCGUAGCCACCA
DNA 1: CAATCTGAATTCCGGTCTCCC
DNA 2: TGGTGGCTACGACGGGATT
B7: UAAUACC (DNA:RNA)
RNA: B1 RNA with C27A, A30C, U31C
DNA 1: CAATCTGAATTCCGGTCTCCC
DNA 2: TGGTGGCTACGACGGGATT
B8: GGCGAGC (DNA:RNA)
RNA: B1 RNA with U25G, A26G, U28G, A30G, U31C
DNA 1: CAATCTGAATTCCGGTCTCCC
DNA 2: TGGTGGCTACGACGGGATT
B9: CACGAAA (DNA:RNA)
RNA: B1 RNA with U25C, U28G, U31A
DNA 1: CAATCTGAATTCCGGTCTCCC
DNA 2: TGGTGGCTACGACGGGATT
B10: CAGCGGC (DNA:RNA)
RNA: B1 RNA with U25C, C27G, U28C, A29G, A30G, U31C
DNA 1: CAATCTGAATTCCGGTCTCCC
DNA 2: TGGTGGCTACGACGGGATT
B11: CCUGGAU (DNA:RNA)
RNA: B1 RNA with U25C, A26C, C27U, U28G, A29G
DNA 1: CAATCTGAATTCCGGTCTCCC
DNA 2: TGGTGGCTACGACGGGATT
B12: UGGGGGC (DNA:RNA)
RNA: B1 RNA with A26G, C27G, U28G, A29G, A30G, U31C
DNA 1: CAATCTGAATTCCGGTCTCCC
DNA 2: TGGTGGCTACGACGGGATT
B13: AUUUGUA (DNA:RNA)
RNA: B6 RNA with G25A, A27U, A28U, U29G, C30U
DNA 1: CAATCTGAATTCCGGTCTCCC
DNA 2: TGGTGGCTACGACGGGATT
B14: UCUAAAA (DNA:RNA)
RNA: B1 RNA with A26C, C27U, U28A, U31A
DNA 1: CAATCTGAATTCCGGTCTCCC
DNA 2: TGGTGGCTACGACGGGATT
B15: GGUCCUC (DNA:RNA)
RNA: B6 RNA with U26G, A27U, A28C, U29C, C30U, A31C
DNA 1: CAATCTGAATTCCGGTCTCCC
DNA 2: TGGTGGCTACGACGGGATT
B16: GUACUCC (DNA:RNA)
RNA: B6 RNA with A28C, A31C
DNA 1: CAATCTGAATTCCGGTCTCCC
DNA 2: TGGTGGCTACGACGGGATT
B17: GGUACCC (DNA:RNA)
RNA: B6 RNA with U26G, A27U, U29C, A31C
DNA 1: CAATCTGAATTCCGGTCTCCC
DNA 2: TGGTGGCTACGACGGGATT
B18: UUUGGCU (DNA:RNA)
RNA: B6 RNA with G25U, A27U, A28G, U29G, A31U
DNA 1: CAATCTGAATTCCGGTCTCCC
DNA 2: TGGTGGCTACGACGGGATT
B19: CGUUGCG (DNA:RNA)
RNA: B6 RNA with G25C, U26G, A27U, A28U, U29G, A31G
DNA 1: CAATCTGAATTCCGGTCTCCC
DNA 2: TGGTGGCTACGACGGGATT
B20: CUUUCGC (DNA:RNA)
RNA: B6 RNA with G25C, A27U, A28U, U29C, C30G, A31C
DNA 1: CAATCTGAATTCCGGTCTCCC
DNA 2: TGGTGGCTACGACGGGATT
B21: UAGAUGC (DNA:RNA)
RNA: B6 RNA with G25U, U26A, A27G, C30G, A31C
DNA 1: CAATCTGAATTCCGGTCTCCC
DNA 2: TGGTGGCTACGACGGGATT
B22: GCAAGGG (DNA:RNA)
RNA: B6 RNA with U26C, U29G, C30G, A31G
DNA 1: CAATCTGAATTCCGGTCTCCC
DNA 2: TGGTGGCTACGACGGGATT
B23: CAUGAUU (DNA:RNA)
RNA: B1 RNA with U25C, C27U, U28G, A30U
DNA 1: CAATCTGAATTCCGGTCTCCC
DNA 2: TGGTGGCTACGACGGGATT
B24: UGCAUCC (DNA:RNA)
RNA: B6 RNA with G25U, U26G, A27C, A31C
DNA 1: CAATCTGAATTCCGGTCTCCC
DNA 2: TGGTGGCTACGACGGGATT
B25: GUCCGUU (DNA:RNA)
RNA: B6 RNA with A27C, A28C, U29G, C30U, A31U
DNA 1: CAATCTGAATTCCGGTCTCCC
DNA 2: TGGTGGCTACGACGGGATT
B26: GUGUCGC (DNA:RNA)
RNA: B6 RNA with A27G, A28U, U29C, C30G, A31C
DNA 1: CAATCTGAATTCCGGTCTCCC
DNA 2: TGGTGGCTACGACGGGATT
B27: UACGAUC (DNA:RNA)
RNA: B1 RNA with U28G, A30U, U31C
DNA 1: CAATCTGAATTCCGGTCTCCC
DNA 2: TGGTGGCTACGACGGGATT
B28: CACUUAA (DNA:RNA)
RNA: B1 RNA with U25C, A29U, U31A
DNA 1: CAATCTGAATTCCGGTCTCCC
DNA 2: TGGTGGCTACGACGGGATT
B29: CGUAGAC (DNA:RNA)
RNA: B6 RNA with G25C, U26G, A27U, U29G, C30A, A31C
DNA 1: CAATCTGAATTCCGGTCTCCC
DNA 2: TGGTGGCTACGACGGGATT
B30: CGUUCGA (DNA:RNA)
RNA: B6 RNA with G25C, U26G, A27U, A28U, U29C, C30G
DNA 1: CAATCTGAATTCCGGTCTCCC
DNA 2: TGGTGGCTACGACGGGATT
B31: AUUAUGG (DNA:RNA)
RNA: B6 RNA with G25A, A27U, C30G, A31G
DNA 1: CAATCTGAATTCCGGTCTCCC
DNA 2: TGGTGGCTACGACGGGATT

These binders were tested against T1, RBFOX1 RRM RbFoxmut (Fox-RRM*) (assay: EMSA; HiTS-Eq, 1 nM pool, 10 min; buffer printed only for the single-RNA assays: 10 mM Tris pH 7.5, 150 mM NaCl, 3.4 mM EDTA, 0.001% NP-40, 30 C). Settings: tags: His6 N-terminal (pET28a); label: 5' 32P.
In short: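 These values rest on relative association constants, computed from read-count changes of each RNA species versus the control reaction and normalised to the cognate motif. Reads came from free RNA recovered by 8% native PAGE after purified RbFox RRM (wild type or mutant) at increasing concentrations was equilibrated for 10 min in 50 µL with 1 nM of a 5′-radiolabelled pool with 7 randomized nucleotides and DNA-annealed flanks.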

Binder | binding signal
B1 | 0.0783 KA relative to UGCAUGU
B2 | 0.102 KA relative to UGCAUGU
B3 | 0.163 KA relative to UGCAUGU
B4 | 0.138 KA relative to UGCAUGU
B5 | 0.0633 KA relative to UGCAUGU
B6 | 0.0865 KA relative to UGCAUGU
B7 | 0.0785 KA relative to UGCAUGU
B8 | 0.0827 KA relative to UGCAUGU
B9 | 0.0962 KA relative to UGCAUGU
B10 | 0.0803 KA relative to UGCAUGU
B11 | 0.0641 KA relative to UGCAUGU
B12 | 0.0983 KA relative to UGCAUGU
B13 | 0.258 KA relative to UGCAUGU
B14 | 0.0829 KA relative to UGCAUGU
B15 | 0.105 KA relative to UGCAUGU
B16 | 0.044 KA relative to UGCAUGU

Binder | binding signal
B17 | 0.0795 KA relative to UGCAUGU
B18 | 0.128 KA relative to UGCAUGU
B19 | 0.169 KA relative to UGCAUGU
B20 | 0.0864 KA relative to UGCAUGU
B21 | 0.087 KA relative to UGCAUGU
B22 | 0.0544 KA relative to UGCAUGU
B23 | 0.108 KA relative to UGCAUGU
B24 | 0.421 KA relative to UGCAUGU
B25 | 0.122 KA relative to UGCAUGU
B26 | 0.118 KA relative to UGCAUGU
B27 | 0.0637 KA relative to UGCAUGU
B28 | 0.123 KA relative to UGCAUGU
B29 | 0.106 KA relative to UGCAUGU
B30 | 0.093 KA relative to UGCAUGU
B31 | 0.0767 KA relative to UGCAUGU
